31 variants from the GPR68 mutational scans of Howard et al. (2025) can be followed below.

The labels stand for the following.
B1: GPR68, Q15743 (parent)
chain: MGNITADNSSMSCTIDHTIHQTLAPVVYVTVLVVGFPANCLSLYFGYLQIKARNELGVYLCNLTVADLFYICSLPFWLQYVLQHDNWSHGDLSCQVCGILLYENIYISVGFLCCISVDRYLAVAHPFRFHQFRTLKAAVGVSVVIWAKELLTSIYFLMHEEVIEDENQHRVCFEHYPIQAWQRAINYYRFLVGFLFPICLLLASYQGILRAVRRSHGTQKSRKDQIQRLVLSTVVIFLACFLPYHVLLLVRSVWEASCDFAKGVFNAYHFSLLLTSFNCVADPVLYCFVSETTHRDLARLRGACLAFLTCSRTGRAREAYPLGAPEASGKSGAQGEEPELLTKLHPAFQTPNSPGSGGFPTGRLA

Data set [1] covers variants of B1. As to the kind of experiment: cAMP reporter score (Enrich2 score, wild type = 0); higher = more signal; HEK293T, FACS bins.
The variants in data set [2] derive from B1. As to the kind of experiment: surface expression score (Enrich2 score, wild type = 0); higher = more signal; HEK293T, FACS bins.

The least precise scores are not listed. The source holds two more conditions with little spread; they are left out. In variant names, del marks residues removed and ins residues inserted between the two positions. For some assays here: How much ogerin was present is not stated here.

Regarding P37Y, the cAMP reporter score was -1.14 in data set [1] (pH 5.5); -0.825 in data set [1] (pH 6); -1.06 in data set [1] (pH 6, modulator: ogerin); -0.917 in data set [1] (pH 6.5, modulator: ogerin). In addition, the surface expression score in data set [2] was -2.31.
As for P37Q, the cAMP reporter score in data set [1] (pH 5.5) is -2.02; in data set [1] (pH 6, modulator: ogerin), -1.15; in data set [1] (pH 6.5, modulator: ogerin), -1.07. Besides, in data set [2], the surface expression score is -2.32.
Turning to P37G, the cAMP reporter score in data set [1] (pH 5.5) is -0.375; in data set [1] (pH 6), 0.323; in data set [1] (pH 6, modulator: ogerin), -0.539; in data set [1] (pH 6.5, modulator: ogerin) it was 0.304. The surface expression score in data set [2] was -2.21.
For the variant P37C, the cAMP reporter score in data set [1] (pH 5.5) is 0.743; in data set [1] (pH 6, modulator: ogerin) it was 0.123; in data set [1] (pH 6.5, modulator: ogerin), -0.28. The surface expression score in data set [2] was -1.66.
P37_A38insGS: the cAMP reporter score is -0.482 in data set [1] (pH 5.5); 0.625 in data set [1] (pH 6); -0.734 in data set [1] (pH 6, modulator: ogerin); -0.295 in data set [1] (pH 6.5, modulator: ogerin). For the same variant, the surface expression score in data set [2] is -2.09.
With G35_F36del, the cAMP reporter score in data set [1] (pH 5.5) is -0.319; in data set [1] (pH 6, modulator: ogerin), -1.5; in data set [1] (pH 6.5, modulator: ogerin) it was -1.45. In addition, the surface expression score in data set [2] is -3.05.
As for L43_Y44insGSG, the cAMP reporter score in data set [1] (pH 5.5) was -1.45; in data set [1] (pH 6) it was -0.661; in data set [1] (pH 6, modulator: ogerin) it was -1.71; in data set [1] (pH 6.5, modulator: ogerin), -1.05. For the same variant, in data set [2], the surface expression score was -2.27.
For Y44del the same measures were -1.56, -1.32, -2.34, -1.3 and -1.55.
In the case of A38_N39insGS, the cAMP reporter score in data set [1] (pH 5.5) was -1.09; in data set [1] (pH 6), -0.626; in data set [1] (pH 6, modulator: ogerin), -2.42; in data set [1] (pH 6.5, modulator: ogerin) it was -0.483. In addition, the surface expression score in data set [2] is -2.74.
For S42_L43insGSG the same measures were -0.343, -1.33, -0.988, -0.638 and -1.5.
Taken in the same sequence, the figures for P37_A38insG were -0.537, -0.327, -0.929, -0.539 and -2.73.
For G35L the same measures were -1.62, -1.02, -1.88, -1.32 and -2.28.
For G35M, the cAMP reporter score in data set [1] (pH 5.5) is -0.969; in data set [1] (pH 6) it was 0.133; in data set [1] (pH 6, modulator: ogerin), -1.37; in data set [1] (pH 6.5, modulator: ogerin), -0.886. In addition, the surface expression score in data set [2] is -2.48.
In the case of G35N, the cAMP reporter score in data set [1] (pH 5.5) is -1.01; in data set [1] (pH 6) it was -0.738; in data set [1] (pH 6, modulator: ogerin), 0.852; in data set [1] (pH 6.5, modulator: ogerin), 0.384. Also, the surface expression score in data set [2] is -1.55.
G35R: the cAMP reporter score in data set [1] (pH 5.5) was 1.46; in data set [1] (pH 6), -0.407; in data set [1] (pH 6, modulator: ogerin), -1.67; in data set [1] (pH 6.5, modulator: ogerin) it was -0.462.
G35Q: the cAMP reporter score in data set [1] (pH 5.5) is -1.74; in data set [1] (pH 6), -1.43; in data set [1] (pH 6, modulator: ogerin), -2.73; in data set [1] (pH 6.5, modulator: ogerin), -0.977. Moreover, the surface expression score in data set [2] is -1.66.
In the case of G35T, the cAMP reporter score is -1.78 in data set [1] (pH 5.5); -2.19 in data set [1] (pH 6); -1.78 in data set [1] (pH 6, modulator: ogerin); -0.645 in data set [1] (pH 6.5, modulator: ogerin). Moreover, the surface expression score in data set [2] was -3.62.
In the case of G35E, the cAMP reporter score in data set [1] (pH 5.5) was -1.47; in data set [1] (pH 6), -1.02; in data set [1] (pH 6, modulator: ogerin), -1.6; in data set [1] (pH 6.5, modulator: ogerin) it was -1.4. Also, in data set [2], the surface expression score was -2.33.
For G35I the same measures were -0.302, -0.386, -0.708, -0.386 and -2.
As for G35C, the cAMP reporter score was -1.43 in data set [1] (pH 5.5); -0.945 in data set [1] (pH 6); -1.39 in data set [1] (pH 6, modulator: ogerin); -1.64 in data set [1] (pH 6.5, modulator: ogerin). The surface expression score in data set [2] is -2.1.
Taken in the same sequence, the figures for G35A were 0.048, -0.504, 0.221, -0.686 and -1.1.
Taken in the same sequence, the figures for G35D were -0.889, -0.429, -0.995, -0.832 and -1.
Taken in the same sequence, the figures for G35V were -1.61, -1.6, -1.46, -1.37 and -1.78.
Regarding G35W, the cAMP reporter score in data set [1] (pH 5.5) was -1.49; in data set [1] (pH 6), -1.45; in data set [1] (pH 6, modulator: ogerin), -1.54; in data set [1] (pH 6.5, modulator: ogerin), -0.417. In data set [2], the surface expression score was -2.31.
For G35F the same measures were -0.893, -0.529, -0.844, -0.178 and -2.63.
For G35P the same measures were -1.41, 1.91, -1.36, 1.82 and -2.88.
Consider G35S, for which the cAMP reporter score in data set [1] (pH 5.5) is -1.25; in data set [1] (pH 6), -0.095; in data set [1] (pH 6, modulator: ogerin), -1.21; in data set [1] (pH 6.5, modulator: ogerin), -0.608.
Consider G35K, for which the cAMP reporter score in data set [1] (pH 5.5) is -0.399; in data set [1] (pH 6, modulator: ogerin), -0.678; in data set [1] (pH 6.5, modulator: ogerin), -0.869. For the same variant, the surface expression score in data set [2] was -0.315.
For G35H, the cAMP reporter score was -0.593 in data set [1] (pH 5.5); -0.018 in data set [1] (pH 6); 0.107 in data set [1] (pH 6, modulator: ogerin); 0.039 in data set [1] (pH 6.5, modulator: ogerin). Moreover, in data set [2], the surface expression score was -2.41.
For V34_G35insGS the same measures were -1.83, -1.78, -2.27, -1.43 and -2.58.
Taken in the same sequence, the figures for Y44_F45del were -1.17, -1.37, -1.62, -0.922 and -2.63.
